Test results reported in PubChem BioAssay AID760 (NMMLSC, 2007).
The campaign covered roughly 190,000 compounds. About 360 (0.19%) were called active. The shares of active, inactive and inconclusive entries below differ from those in the screen.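 How the source made its calls: active means GTP binding activity at least 20 points away from 100%, either lowered or raised; inconclusive means signal likely due to the compound's own green fluorescence; inactive means the rest.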

What follows are molecules tested against Ras-related protein Rab-2A (Canis lupus familiaris) (UniProt P61105) (assay: Rab2 wt fluorescent GTP binding changes, either direction – biochemical, dog, bead-based flow cytometry, multiplex, primary screen (AID 760;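 further: 0% = beads with excess unlabeled GTP and 100% = no-compound control corrected for plate trend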)). Conditions: GST-Rab2 wt beads, Bodipy-GTP binding, at 10 µM.

| SMILES | GTP binding activity |
| --- | --- |
| CC1(C(=O)NCc2ccc(Cl)c(Cl)c2)Oc2cccnc2NC1=O (configuration not stated) | inactive: 98% |
| NNC(=O)CN1C(c2ccccc2Br)=Nc2ccc(Br)cc2C1c1ccccc1 (configuration not stated) | inactive: 96% |
| O=C(Oc1ccc(C(=S)N2CCOCC2)cc1Br)c1ccccc1F | inconclusive: 89% |
| COc1ccccc1NC(=O)CN(C)S(=O)(=O)c1cc(C)ccc1OC | inconclusive: 100% |
| Cc1[nH]c2ccccc2c1[C@H]1[C@@H](CC#N)C1(C)C | inconclusive: 103% |
| COCCN(C(=O)CCc1nnc(CCc2c[nH]c3ccccc23)o1)C(C)C | inactive: 98% |
| Cc1cc(OCC(=O)Nc2ccncc2)ccc1Br | inconclusive: 90% |
| COC(=O)c1c(NC(=O)CSc2nnnn2-c2ccccc2)sc2c1CCC(C)C2 (configuration not stated) | inconclusive: 90% |
| O=Cc1cn(CC(O)CN2CCCCC2)c2ccccc12 (configuration not stated) | inconclusive: 95% |
| CCN(CC)C(=O)Cn1cc(C(=O)C(=O)NCc2ccco2)c2ccccc21 | inactive: 96% |
| O=C(N/N=C/c1ccc(-c2ccccc2[N+](=O)[O-])o1)c1cncc(Br)c1 | inactive: 83% |
| COc1cc(C(=O)OCC(=O)Nc2sccc2C(N)=O)cc(OC)c1OC | inconclusive: 91% |
| COc1ccccc1NC(=O)CSc1ccc2nnc(-c3cccnc3)n2n1 | inconclusive: 71% |
| O=C(OCC(=O)N1CCN(C(=O)c2ccco2)CC1)c1cc(=O)c2ccccc2o1 | inconclusive: 99% |
| COC(=O)c1ccc(C2C(Oc3ccccc3)C(=O)N2CCc2ccc(F)cc2)cc1 (configuration not stated) | inconclusive: 100% |
| O=C(c1ccccc1NS(=O)(=O)c1cccc([N+](=O)[O-])c1)N1CCOCC1 | inconclusive: 105% |
| CC1Sc2ccc(C(=O)O)cc2NC1=O (configuration not stated) | inconclusive: 94% |
| Cn1c(SCC(N)=O)nnc1C1CCN(C(=O)NCc2ccccc2)CC1 | inconclusive: 103% |
| CCOc1ccc(CCNS(=O)(=O)c2cccc3nsnc23)cc1OCC | inconclusive: 103% |
| Cc1sc2nc(-c3ccncc3)[nH]c(=O)c2c1-c1ccccc1 | inconclusive: 87% |
| CSc1ccccc1C(=O)NCc1ccc(C)cc1 | inconclusive: 94% |
| O=C(Oc1coc(CSc2ncccn2)cc1=O)c1cccs1 | inactive: 96% |
| O=C(O)c1ccc(/C=N/Nc2ccc(C(F)(F)F)cn2)cc1 | inconclusive: 92% |

| SMILES | GTP binding activity |
| --- | --- |
| O=C1CCCN1C(=O)CCC(=O)N1CCCC1=O | inconclusive: 106% |
| O=C(NC1CCCC1)C1C2C=CC(C2)C1C(=O)N1CCOCC1 (configuration not stated) | inactive: 99% |
| Cc1cc(C)n2nc(SCC(=O)N/N=C/c3cccc(Br)c3)nc2n1 | inconclusive: 89% |
| COc1ccc(-c2c[n+]3c4n2CCCCC4=C(c2ccccc2)C3)cc1 | inconclusive: 104% |
| CC(C)(C)NC(=O)CN(C(=O)C(=O)Nc1ccc2c(c1)OCCO2)C(C)(C)C | inactive: 101% |
| O=C(Nn1c(O)c(C=C2N=c3ccccc3=N2)sc1=S)c1ccccc1 | inconclusive: 93% |
| NC(=O)Cn1nc([N+](=O)[O-])nc1Oc1ccccc1C(=O)N1CCOCC1 | inconclusive: 94% |
| CCCCOC(=O)NC1CCS(=O)(=O)C1 (configuration not stated) | inconclusive: 104% |
| O=C(c1cc(-c2ccncc2)nc2ccc(Br)cc12)N1CCN(c2ccccn2)CC1 | inconclusive: 91% |
| COc1ccc(N2CC(C(=O)N/N=C/c3cc([N+](=O)[O-])ccc3O)CC2=O)cc1 (configuration not stated) | inconclusive: 88% |
| O=C(C[n+]1cccc2ccccc21)c1ccc(NC(=O)c2ccccc2)cc1 | inconclusive: 139% |
| O=S(=O)(/N=C(\Nc1ccc(F)cc1)C(F)(F)F)c1ccccc1 | inconclusive: 101% |
| CSc1nc(O)cc(=O)n1-c1ccc(F)cc1 | inactive: 100% |
| S=C1NCCOCCOCCNC(=S)N2CCOCCOCCN1CCOCCOCC2 | inactive: 100% |
| COc1ccc(-c2c(O)c(C#N)c(-c3ccccc3)n(-c3ccc(OC)cc3)c2=O)cc1 | inconclusive: 91% |
| Cc1cc(Cl)ccc1OCC(=O)OCC(=O)Nc1ccc(F)c([N+](=O)[O-])c1 | active: 64% |
| CSCCC(=O)Nc1cc(S(=O)(=O)N2CCOCC2)ccc1N1CCN(C)CC1 | inconclusive: 93% |
| CCCCCCNc1cc2n(c(=O)n1)CCc1cc(OC)c(OC)cc1-2 | inconclusive: 75% |
| O=C(c1ccco1)N1CCN(c2cc(N3CCOCC3)c(F)cc2[N+](=O)[O-])CC1 | inconclusive: 91% |
| COc1ccc(CNc2ccccc2SC)cc1OC | inconclusive: 102% |
| Cc1ccc(S(=O)(=O)O/N=C2/CCCc3occc32)cc1 | inconclusive: 107% |
| COc1ccccc1NC(=O)Nc1cccnc1 | inactive: 94% |
| Cc1ccc(CN2CCN(CC(=O)O)C2=O)cc1 | inactive: 100% |

| SMILES | GTP binding activity |
| --- | --- |
| CC(CNC(=O)CC(C)(C)C)NC(=O)CC(C)(C)C (configuration not stated) | inconclusive: 96% |
| Cc1c(C2OC(=O)C3(CCCCC3)C(=O)C2(C)C)c(=O)n(-c2ccccc2)n1C (configuration not stated) | inconclusive: 105% |
| NS(=O)(=O)c1cccnc1Nc1c(Cl)cccc1Cl | inconclusive: 159% |
| Cc1ccc(-c2nnc(SCC(=O)N/N=C/c3ccc(C)s3)n2-c2ccccc2)cc1 | inconclusive: 94% |
| Cc1ccc(SCC(=O)Nc2ccc(N3CCOCC3)cc2)c(C)c1 | inactive: 103% |
| CCCNC(=O)c1cc2nc(-c3ccccc3)cc(C(F)(F)F)n2n1 | inconclusive: 102% |
| CC(C)(C)c1ccccc1NC(=O)c1c(O)c2cccc3c2n(c1=O)CC3 | inactive: 102% |
| O=C(Nc1cccc(O)c1)c1cccc(S(=O)(=O)N2CCCC2)c1 | inconclusive: 84% |
| CCOc1ccc(NC(=O)c2cc(F)c(F)cc2Cl)cc1OCC | inactive: 95% |
| Cc1ccc(-c2nnc(Nc3ccccc3)o2)cc1 | inconclusive: 108% |
| COc1ccccc1NC(=O)c1ccccc1C(=O)O | inconclusive: 92% |
| CC1CCc2onc(C(=O)NCc3ccco3)c2C1 (configuration not stated) | inconclusive: 106% |
| COc1ccc(-n2c(SCc3cn4c(C)cccc4n3)nc3ccccc3c2=O)cc1OC | inactive: 96% |
| Nc1[nH]n(-c2ccccc2)c(=O)c1N=Nc1ccc2c(c1)OCCO2 | inactive: 93% |
| Cc1ccc(-c2ccc(/C=N/NC(=O)CN3CCCC3)o2)cc1Cl | inconclusive: 128% |
| O=Cc1cn(CC(=O)N2CCc3ccccc32)c2ccccc12 | inactive: 99% |
| O=C(CCCN1C(=O)c2ccccc2C1=O)Oc1ccc(F)cc1 | inactive: 107% |
| Cn1ncc(C(N)=O)c1NC(=S)NC(=O)c1ccc(Br)o1 | inconclusive: 83% |
| COc1ccc(CCNc2cc(=O)[nH]c(N)n2)cc1 | inconclusive: 63% |
| COc1ccc(C(=O)Cn2c(C(=O)/C=C/c3ccccc3)nc3ccccc32)cc1 | inactive: 99% |
| Cc1ccc(OCC(=O)N/N=C\c2ccncc2)c(C)c1 | inactive: 98% |
| O=C(COC(=O)c1cccnc1Nc1cccc(C(F)(F)F)c1)NCc1ccc2c(c1)OCO2 | inconclusive: 86% |
| CCOc1ccc(S(=O)(=O)N(C)c2ccc(OCC(=O)Nc3nc(-c4cc(OC)ccc4OC)cs3)cc2)cc1 | inactive: 96% |

| SMILES | GTP binding activity |
| --- | --- |
| Cc1nnc(-c2cnn(C)c2N)n1Cc1ccccc1 | inconclusive: 104% |
| Nc1nc(N)c2sc3nc(C(F)(F)F)cc(C(F)(F)F)c3c2n1 | inconclusive: 80% |
| COc1ccccc1-c1ccc(SCC(=O)NCc2ccc3c(c2)OCO3)nn1 | inconclusive: 89% |
| CC1=NC(=O)C(N=Nc2cccc(C(=O)O)c2)N1c1ccccc1 (configuration not stated) | inconclusive: 90% |
| COc1ccc(-c2cc(-c3ccccc3)nc3ncnn23)cc1 | inconclusive: 95% |
| Cc1cccc(N2CCN(C(=O)c3ccc(CNc4c(N5CCC(C)CC5)c(=O)c4=O)cc3)CC2C)c1 (configuration not stated) | inactive: 100% |
| CCOC(=O)C1(CCCc2ccccc2)CCN(CC(O)CO)CC1 (configuration not stated) | inconclusive: 95% |
| COc1ccc(-c2cc(C(=O)OCC(=O)c3ccc(C)c([N+](=O)[O-])c3)c3ccccc3n2)cc1 | inconclusive: 102% |
| C/C(CCC(=O)OC[C@H]1O[C@H](C#Cc2ccccc2)C=C[C@@H]1Oc1ccc(C)cc1)=N\O[C@@H](C)CN1CCCCc2nc(C)c(C)cc21 | inactive: 101% |
| O=C1NC(Cc2ccccc2)C(=O)N1Cc1cc([N+](=O)[O-])cc2c1OCOC2 (configuration not stated) | inconclusive: 94% |
| CN1CCN(c2ccc(Cl)cc2NC(=O)CCN2C(=O)c3ccccc3C2=O)CC1 | inactive: 101% |
| O=C(O)c1ccccc1C(=O)N1CCN(c2ccccc2)CC1 | inconclusive: 99% |
| CCOC(=O)C1(CCc2ccccc2)CCN(C(=O)CN2C(=O)CSC2=O)CC1 | inactive: 98% |
| O=C(Cc1ccc(Cl)cc1)NNC(=O)c1cnccn1 | inconclusive: 101% |
| Cc1nccn1-c1cc(C(C)(C)C)nc2c(-c3ccccc3)cnn12 | inactive: 95% |
| CC(COc1ccccc1)N1CCC(CO)(Cc2ccccc2)CC1 (configuration not stated) | inactive: 95% |
| CN=c1scc(-c2cccs2)n1/N=C/c1ccc(O)c(O)c1O | inconclusive: 94% |
| CC(=O)OC(C)C[N+](C)(C)C (configuration not stated) | inconclusive: 97% |
| O=C(COc1cc(Cl)ccc1Cl)Nc1nnc(CC(=O)N2CCOCC2)s1 | active: 72% |
| CCOC(=O)Cc1cc(=O)n2[nH]c(C)cc2n1 | inconclusive: 104% |
| O=C(Nc1ccc(S(=O)(=O)N2CCCC2)cc1)c1cccs1 | inactive: 97% |
| N#C/C(=C/c1ccc(O)c([N+](=O)[O-])c1)C(=O)Nc1ccccc1 | inactive: 84% |
| COc1cccc(C(=O)C2CCCN(C(=O)CCC3=NNC(=O)CC3)C2)c1 (configuration not stated) | inconclusive: 96% |
